Measurements published in the supplement of paper PMC4967469.

Tests used:
Assay in all cases: Viability of human cancer cell lines after 72 h of drug (GDSC screen)
QL-XI-92 = compound: C=CC(=O)Nc1cc(NC(=O)c2ccc(C)c(NC(=O)c3ccno3)c2)cc(C(F)(F)F)c1 [QL-XI-92]; settings: top dose 10.24 µM; top dose inferred
Experimental: (§1)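 Human cancer cell lines in 384-well plates, medium with 10% serum, drug for 72 h over a 256-fold dose range (nine 2-fold or five 4-fold steps up to the top dose). Adherent lines were fixed and stained with the nucleic acid dye Syto60, suspension lines read with resazurin; signal relative to control wells, capped at 0 and 100%. One two-parameter sigmoid per drug and line, fitted in a mixed model over all curves with the slope shared within a line.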

AG-014699 = compound: CNCc1ccc(-c2[nH]c3cc(F)cc4c3c2CCNC4=O)cc1 [AG-014699]; settings: top dose 5 µM; top dose inferred
Experimental: as §1

WHI-P97 = compound: COc1cc2ncnc(Nc3cc(Br)c(O)c(Br)c3)c2cc1OC [WHI-P97]; settings: top dose 10.24 µM; top dose inferred
Experimental: as §1

EHT 1864 = compound: O=c1cc(CN2CCOCC2)occ1OCCCCCSc1ccnc2cc(C(F)(F)F)ccc12 [EHT 1864]; settings: top dose 10 µM; top dose inferred
Experimental: as §1

Phenformin = compound: N=C(N)NC(=N)NCCc1ccccc1 [Phenformin]; settings: top dose 4000 µM; top dose inferred
Experimental: as §1

XL-184 = compound: COc1cc2nccc(Oc3ccc(NC(=O)C4(C(=O)Nc5ccc(F)cc5)CC4)cc3)c2cc1OC [XL-184]; settings: top dose 5.12 µM; top dose inferred
Experimental: as §1

Gefitinib = compound: COc1cc2ncnc(Nc3ccc(F)c(Cl)c3)c2cc1OCCCN1CCOCC1 [Gefitinib]; settings: top dose 0.5 µM
Experimental: as §1

NU-7441 = compound: O=c1cc(N2CCOCC2)oc2c(-c3cccc4c3sc3ccccc34)cccc12 [NU-7441]; settings: top dose 2 µM; top dose inferred
Experimental: as §1

Vinorelbine = compound: CCC1=C[C@@H]2CN(C1)Cc1c([nH]c3ccccc13)[C@@](C(=O)OC)(c1cc3c(cc1OC)N(C)[C@H]1[C@@](O)(C(=O)OC)[C@H](OC(C)=O)[C@]4(CC)C=CCN5CC[C@]31[C@@H]54)C2 [Vinorelbine]; settings: top dose 0.064 µM; top dose inferred
Experimental: as §1

Cell Line | AUC (QL-XI-92) | IC50 (QL-XI-92) [µM] | AUC (AG-014699) | IC50 (AG-014699) [µM] | AUC (WHI-P97) | IC50 (WHI-P97) [µM] | AUC (EHT 1864) | IC50 (EHT 1864) [µM] | AUC (Phenformin) | IC50 (Phenformin) [µM] | AUC (XL-184) | IC50 (XL-184) [µM] | AUC (Gefitinib) | IC50 (Gefitinib) [µM] | AUC (NU-7441) | IC50 (NU-7441) [µM] | AUC (Vinorelbine) | IC50 (Vinorelbine) [µM]
TOV-112D (ovary, adherent) | 0.915 | > 10.2 | 0.961 | > 5 | 0.866 | 9.28 | 0.852 | 7.81 | 0.685 | 826 | 0.922 | > 5.12 | 0.952 | > 0.5 | 0.881 | > 2 | 0.365 | 0.00169
TT2609-C02 (thyroid, adherent) | 0.958 | > 10.2 | 0.933 | > 5 | 0.981 | > 10.2 | 0.943 | > 10 | 0.976 | > 4000 | 0.972 | > 5.12 | 0.981 | > 0.5 | 0.948 | > 2 | 0.566 | 0.00615
TYK-nu (ovary, adherent) | 0.981 | > 10.2 | 0.954 | > 5 | 0.979 | > 10.2 | 0.96 | > 10 | 0.803 | 2160 | 0.958 | > 5.12 | 0.965 | > 0.5 | 0.914 | > 2 | 0.876 | > 0.064
U-118-MG (glioma, adherent) | 0.98 | > 10.2 | 0.805 | 3.01 | 0.963 | > 10.2 | 0.812 | 6.44 | 0.847 | 3670 | 0.853 | 5.03 | 0.967 | > 0.5 | 0.957 | > 2 | 0.868 | > 0.064
UACC-62 (melanoma, adherent) | 0.984 | > 10.2 | 0.942 | > 5 | 0.983 | > 10.2 | 0.978 | > 10 | 0.802 | 1940 | 0.986 | > 5.12 | 0.981 | > 0.5 | 0.978 | > 2 | 0.776 | 0.0253
UACC-893 (breast, adherent) | 0.944 | > 10.2 | 0.975 | > 5 | 0.908 | > 10.2 | 0.797 | 6.66 | 0.699 | 1110 | 0.968 | > 5.12 | 0.979 | > 0.5 | 0.982 | > 2 | 0.947 | > 0.064
VMRC-RCZ (kidney, adherent) | 0.895 | > 10.2 | 0.926 | > 5 | 0.963 | > 10.2 | 0.906 | > 10 | 0.856 | > 4000 | 0.956 | > 5.12 | 0.978 | > 0.5 | 0.919 | > 2 | 0.721 | 0.019
WM35 (melanoma, adherent) | 0.922 | > 10.2 | 0.986 | > 5 | 0.98 | > 10.2 | 0.95 | > 10 | 0.679 | 796 | 0.873 | 5 | 0.772 | 0.195 | 0.894 | > 2 | 0.763 | 0.0233
WM793B (melanoma, adherent) | 0.907 | > 10.2 | 0.956 | > 5 | 0.97 | > 10.2 | 0.981 | > 10 | 0.65 | 682 | 0.914 | > 5.12 | 0.956 | > 0.5 | 0.966 | > 2 | 0.806 | 0.0368
WM1552C (melanoma, adherent) | 0.929 | > 10.2 | 0.984 | > 5 | 0.987 | > 10.2 | 0.978 | > 10 | 0.586 | 431 | 0.988 | > 5.12 | 0.988 | > 0.5 | 0.924 | > 2 | 0.879 | > 0.064
WM-115 (melanoma, adherent) | 0.816 | 7.33 | 0.944 | > 5 | 0.891 | > 10.2 | 0.977 | > 10 | 0.463 | 193 | 0.903 | > 5.12 | 0.959 | > 0.5 | 0.924 | > 2 | 0.888 | > 0.064
YAPC (pancreas, adherent) | 0.972 | > 10.2 | 0.974 | > 5 | 0.984 | > 10.2 | 0.973 | > 10 | 0.744 | 1510 | 0.965 | > 5.12 | 0.977 | > 0.5 | 0.983 | > 2 | 0.957 | > 0.064
YKG-1 (glioma, adherent) | 0.853 | 8.19 | 0.961 | > 5 | 0.972 | > 10.2 | 0.979 | > 10 | 0.736 | 1190 | 0.917 | > 5.12 | 0.979 | > 0.5 | 0.966 | > 2 | 0.534 | 0.00495
huH-1 (liver, adherent) | 0.982 | > 10.2 | 0.983 | > 5 | 0.984 | > 10.2 | 0.896 | > 10 | 0.878 | > 4000 | 0.984 | > 5.12 | 0.964 | > 0.5 | 0.963 | > 2 | 0.984 | > 0.064

IC50 is the fitted dose that halves viability relative to control wells, and lower means more sensitive; a fit beyond the top or the lowest dose is shown as a bound at that dose. For AUC the same curve is integrated over the 256-fold range of doses and scaled to a fraction: 1 means no effect, lower means more sensitive. For part of these data: Where the top dose is marked as inferred, it comes from the curve model; the source does not state it.
